Measurements as given in the antibiotic and cytotoxicity screens of Wong et al. (2023).
The list shows a part of the results.

Tests used:
HSkMC = human skeletal muscle cells; test: cytotoxicity call (relative viability < 0.9); conditions: 10 µM
HepG2 = test: cytotoxicity call (relative viability < 0.9); conditions: 10 µM
S. aureus RN4220 = test: growth inhibition call (relative growth <= 0.2); conditions: 50 µM

Compound | cytotoxicity call (HSkMC) | cytotoxicity call (HepG2) | growth inhibition call (S. aureus RN4220)
CC(=O)OCC[C@H](C)CCC=C(C)C | inactive | inactive | inactive
CCCc1cc(=O)nc(SCC(N)=O)[nH]1 | inactive | inactive | inactive
C[C@H](CO)N1C[C@H](C)[C@@H](CN(C)S(C)(=O)=O)Oc2ncc(C#CC3(O)CCCC3)cc2C1=O | inactive | inactive | inactive
C[C@@H]1CCCCO[C@@H](CN(C)Cc2ccc(Cl)c(Cl)c2)[C@@H](C)CN([C@@H](C)CO)C(=O)c2cc(NC(=O)NC3CCCCC3)ccc2O1 | inactive | active | inactive
CO[C@@H]1CN(C)C(=O)c2ccc(NC(=O)C3CCOCC3)cc2OC[C@@H](C)N(Cc2cccnc2)C[C@@H]1C | inactive | inactive | inactive
CN(C)C(=O)[C@@H]1[C@@H](CO)[C@@H]2Cn3c(ccc(C4=CCCC4)c3=O)[C@H]1N2S(=O)(=O)c1cn(C)cn1 | inactive | inactive | inactive
C[C@@H]1CN([C@@H](C)CO)S(=O)(=O)c2ccc(C#CCN(C)C)cc2O[C@@H]1CN(C)C | inactive | inactive | inactive
C[C@H](CO)N1C[C@H](C)[C@H](CN(C)C(=O)C2CCOCC2)Oc2ncc(-c3cccc(C#N)c3)cc2C1=O | inactive | inactive | inactive
C[C@H](CO)N1C[C@H](C)[C@H](CN(C)S(=O)(=O)c2ccc(F)cc2)Oc2ncc(C#Cc3cccc(F)c3)cc2C1=O | inactive | active | inactive
Cc1ccccc1S(=O)(=O)N1C[C@@H](O)COC[C@H]2O[C@H](CC(=O)NCCc3ccncc3)CC[C@@H]21 | inactive | inactive | inactive
CC(C)(C)[S@@](=O)N1Cc2cc(C(=O)N3CCCCC3)nc(-c3cccc(-c4ccccc4F)c3)c2[C@H]1CCO | inactive | inactive | inactive
CS(=O)(=O)CCNCc1nc(-c2ccc3ncnc(Nc4ccc(OCc5cccc(F)c5)c(Cl)c4)c3c2)cs1 | active | inactive | inactive
O=C1O[C@H](c2ccccc2)[C@H](c2ccccc2)N2[C@H]1[C@@H](C(=O)O)[C@]1(C(=O)Nc3ccc(C#CC4=CCCCC4)cc31)[C@H]2C1CCCCC1 | inactive | active | inactive
C[C@@H]1CN([C@H](C)CO)C(=O)Cc2cc(NC(=O)CCC(F)(F)F)ccc2O[C@H]1CN(C)Cc1ccc(C(=O)Nc2ccccc2N)cc1 | inactive | inactive | inactive
CN1C(=O)c2cc(NC(=O)c3cccs3)ccc2OC[C@@H]2O[C@@H](CC(=O)NCC(F)(F)F)CC[C@H]21 | inactive | inactive | inactive
C[C@@H]1CN([C@@H](C)CO)C(=O)c2cc(NC(=O)CCCN(C)C)ccc2O[C@H]1CN(C)Cc1ccc2c(c1)OCO2 | inactive | inactive | inactive
C[C@@H]1CCCCO[C@H](CN(C)Cc2ccc(C(=O)O)cc2)[C@@H](C)CN([C@H](C)CO)C(=O)c2cc(NC(=O)c3ccccc3)ccc2O1 | inactive | inactive | inactive
C[C@@H]1CN([C@@H](C)CO)C(=O)c2cc(C#CC3(O)CCCC3)cnc2O[C@H]1CN(C)S(=O)(=O)c1cccc(F)c1 | inactive | inactive | inactive
COc1ccccc1-c1ccc2n(c1=O)C[C@H]1[C@H](CO)[C@@H](C(=O)NCC3CC3)N(S(C)(=O)=O)[C@@H]21 | inactive | inactive | inactive
C[C@@H]1CN([C@@H](C)CO)C(=O)Cc2cc(NS(=O)(=O)c3ccc(F)cc3)ccc2O[C@H]1CN(C)C(=O)Nc1cccc2ccccc12 | inactive | inactive | inactive
C[C@@H]1CCCCO[C@H](CN(C)S(=O)(=O)c2ccccc2)[C@@H](C)CN([C@@H](C)CO)C(=O)c2cc(NC(=O)C3CCCCC3)ccc2O1 | inactive | inactive | inactive
CCCNC(=O)N1CC[C@]2(CC1)CN([C@H](CO)c1[nH]c3cc(ccc3c12)OC)C(=O)CN1CCOCC1 | inactive | inactive | inactive
COc1cccc(-c2cnc3c(c2)C(=O)N([C@H](C)CO)C[C@H](C)[C@H](CN(C)Cc2cccc(C(F)(F)F)c2)O3)c1 | inactive | inactive | inactive
C[C@@H]1CN([C@@H](C)CO)C(=O)c2cc(NC(=O)Cc3ccccc3)ccc2O[C@H]1CN(C)S(=O)(=O)c1cccs1 | inactive | inactive | inactive
COc1cccc(C#Cc2ccc3c(c2)O[C@H](CN(C)C(=O)CN2CCOCC2)[C@@H](C)CN([C@@H](C)CO)S3(=O)=O)c1 | inactive | inactive | inactive
